Data on 44 molecules can be found in paper PMC4336329 (PLoS ONE, 2015).

SMILES strings stand for the structures. About 14,000 (4.5%) of roughly 310,000 compounds showed an effect of 50% or more. The effect is printed as a negative number. The list shows a part of the results.
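Note: peak tail current of the secondary pulse compared with the same well before compound.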

human ether-à-go-go-related gene (hERG) potassium channel, sequence (Q12809 whole entry, looked up): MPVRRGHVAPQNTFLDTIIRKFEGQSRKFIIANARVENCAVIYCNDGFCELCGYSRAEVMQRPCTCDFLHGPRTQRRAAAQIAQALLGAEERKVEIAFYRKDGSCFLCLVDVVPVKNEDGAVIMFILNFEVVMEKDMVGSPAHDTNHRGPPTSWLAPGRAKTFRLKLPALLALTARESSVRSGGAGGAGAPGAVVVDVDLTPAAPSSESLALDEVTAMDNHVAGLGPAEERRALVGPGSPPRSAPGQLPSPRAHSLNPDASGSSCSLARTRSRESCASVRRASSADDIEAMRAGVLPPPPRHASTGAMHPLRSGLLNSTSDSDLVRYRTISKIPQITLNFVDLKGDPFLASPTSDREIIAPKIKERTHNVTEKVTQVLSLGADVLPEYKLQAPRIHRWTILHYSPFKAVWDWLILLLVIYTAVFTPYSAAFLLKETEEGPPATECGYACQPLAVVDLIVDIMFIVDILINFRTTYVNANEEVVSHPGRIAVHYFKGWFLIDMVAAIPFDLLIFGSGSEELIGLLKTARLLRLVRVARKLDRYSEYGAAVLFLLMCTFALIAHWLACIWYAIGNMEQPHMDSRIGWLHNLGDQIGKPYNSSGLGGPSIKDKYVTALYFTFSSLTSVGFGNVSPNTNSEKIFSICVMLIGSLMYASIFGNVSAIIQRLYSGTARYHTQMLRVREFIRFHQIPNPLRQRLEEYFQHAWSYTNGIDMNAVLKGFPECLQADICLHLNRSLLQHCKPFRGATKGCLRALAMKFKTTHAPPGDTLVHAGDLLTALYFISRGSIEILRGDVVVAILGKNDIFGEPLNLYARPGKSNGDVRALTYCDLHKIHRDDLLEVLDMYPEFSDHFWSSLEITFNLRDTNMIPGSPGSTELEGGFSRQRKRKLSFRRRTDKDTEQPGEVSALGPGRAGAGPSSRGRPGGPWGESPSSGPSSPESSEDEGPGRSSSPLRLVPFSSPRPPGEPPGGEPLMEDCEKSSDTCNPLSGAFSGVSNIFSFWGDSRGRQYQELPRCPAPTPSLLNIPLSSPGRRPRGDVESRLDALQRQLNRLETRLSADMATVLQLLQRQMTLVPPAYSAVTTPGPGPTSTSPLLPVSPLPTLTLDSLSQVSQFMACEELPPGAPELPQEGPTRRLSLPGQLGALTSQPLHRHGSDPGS

The assay concerns the target human ether-à-go-go-related gene (hERG) potassium channel (human, UniProt Q12809). Description: primary screen, population patch clamp on CHO cells stably expressing hERG.
`CCCN1Cc2cccc(C(=O)NCCc3cccc(C)c3)c2C1=O`: the “hERG current change (%, negative = inhibition) at 10uM” value is -33%.
As for `Cc1cc(Nc2ccc(C)c(C)c2)c2ccccc2n1`, the “hERG current change (%, negative = inhibition) at 10uM” value is listed as -66.9%.
In the case of `Nn1cc(-c2ccccc2)nc1SCC(=O)N1CCN(S(=O)(=O)c2ccc(Cl)cc2)CC1`, the “hERG current change (%, negative = inhibition) at 10uM” value is -5.18%.
As to `Cc1ccc(/C=N/NC(=O)c2ccc3nc[nH]c3c2)o1`, the “hERG current change (%, negative = inhibition) at 10uM” value was found to be 10.6%.
Take `COc1ccc2c(=O)cc(-c3cccnc3)oc2c1OC`: the “hERG current change (%, negative = inhibition) at 10uM” value turned out to be 8.9%.
As to `CCC(C)(C)n1c(=O)[nH]c2c(c1=O)CCC2`, the “hERG current change (%, negative = inhibition) at 10uM” value came to 6.59%.
As for `CC(C)(C)OC(=O)N1CCN(c2ccc(CNC(=O)c3ccc(Cl)cc3)cc2)CC1`, the “hERG current change (%, negative = inhibition) at 10uM” value is recorded as -9.78%.
`Cc1ccc(C(=O)Nc2ccc(NC(=O)c3ccco3)c(C)c2)cc1`: the “hERG current change (%, negative = inhibition) at 10uM” value was 14.7%.
For `Cc1ccccc1NC(=O)c1ccc(NC(=O)C2CCCO2)cc1` (centres unmarked), the “hERG current change (%, negative = inhibition) at 10uM” value worked out at 6.18%.
For `O=[N+]([O-])c1ccc(S(=O)(=O)Nc2cccc(-c3ccc(N4CCCC4)nn3)c2)cc1`, the “hERG current change (%, negative = inhibition) at 10uM” value came out at 1.96%.
`CCN(Cc1ccccc1)Cc1nnnn1Cc1ccccc1`: the “hERG current change (%, negative = inhibition) at 10uM” value is given as -18.7%.
In the case of `CC(=O)c1cccc(NC(=O)/C(=C\c2ccco2)NC(=O)c2cccs2)c1`, the “hERG current change (%, negative = inhibition) at 10uM” value is reported as -9.8%.
On to `CN(C(=O)c1ccccc1Br)C1CCS(=O)(=O)C1` (centres unmarked), for which the “hERG current change (%, negative = inhibition) at 10uM” value was -3.44%.
Turning to `Cc1ccc(C)c(CN2CCC(n3nccc3NC(=O)CCCc3ccccc3)CC2)c1`, the “hERG current change (%, negative = inhibition) at 10uM” value is listed as -54.8%.
`Cc1ccc(NC(=O)N(C)c2ccccc2)cc1`: the “hERG current change (%, negative = inhibition) at 10uM” value was found to be 13.3%.
Next, `COc1ccc(CCNS(=O)(=O)c2ccc3c(c2)OCCO3)cc1OC`: 15%.
As to `CCCNC(=O)c1nc2ncc(Br)cn2n1`, the “hERG current change (%, negative = inhibition) at 10uM” value is listed as -31.1%.
In the case of `COCCCN1C(=O)N(c2ccccc2)C(=O)C1CC(=O)Nc1ccc(F)cc1` (centres unmarked), the “hERG current change (%, negative = inhibition) at 10uM” value came out at 15.8%.
Next, `CC1CC(C)(C)N(C(=O)CN2C(=O)CCC2=O)c2ccccc21` (centres unmarked): 8.35%; `CCCCCCCNC(=O)C1(CC2CC(c3ccc(Cl)cc3)=NO2)CCN(C(=O)c2cc(OCC)c(OCC)c(OCC)c2)CC1` (centres unmarked): 17.6%.
With `Cc1ccc(N(CC(=O)N(C)Cc2ccccc2)S(C)(=O)=O)cc1C`, the “hERG current change (%, negative = inhibition) at 10uM” value is recorded as -3.3%.
As to `CC(C)(C)OC(=O)NCCCCC1=CC2=CC(=O)C(C)(OC(=O)c3cnc4ccccc4n3)C(=O)C2=CO1` (centres unmarked), the “hERG current change (%, negative = inhibition) at 10uM” value came out at 17.2%.
In the case of `COc1cc(NC(=O)c2cnc(N)o2)cc(C(=O)Nc2cccc(C(F)(F)F)c2)c1`, the “hERG current change (%, negative = inhibition) at 10uM” value is listed as -13.5%.
On to `CC1(C(=O)OCC(=O)NC(=O)c2ccccc2)CC1(Cl)Cl` (centres unmarked), for which the “hERG current change (%, negative = inhibition) at 10uM” value was 5.88%.
Consider `Cc1[nH]c2c(C)cccc2c(=O)c1CN1CCCCCC1`, for which the “hERG current change (%, negative = inhibition) at 10uM” value is given as -15.6%.
As to `O=C(Cc1ccccc1Cl)Nc1ccc(S(=O)(=O)N2CCOCC2)cc1`, the “hERG current change (%, negative = inhibition) at 10uM” value came out at 2.29%.
In the case of `CC(C)OP(=O)(OC(C)C)C(Nc1cccc(C(=O)O)c1)c1ccccc1` (centres unmarked), the “hERG current change (%, negative = inhibition) at 10uM” value is 8.37%.
The value for `O=C([O-])CC(=O)NC12CC3CC(CC(C3)C1)C2.[Na+]` was 14.3%.
On to `Cc1ccc(N2C(=O)C(Cl)=C(NCc3ccccc3)C2=O)c(C)c1`, for which the “hERG current change (%, negative = inhibition) at 10uM” value is given as -1.37%.
Turning to `CCC1CCCCN1CCCNC(=O)c1cn(C)c2ccc(S(=O)(=O)N(C)C3CCCCC3)cc2c1=O` (centres unmarked), the “hERG current change (%, negative = inhibition) at 10uM” value was -62.8%.
With `Cc1ccc(C(=O)NS(=O)(=O)c2ccc(N=NN(C)C)cc2)cc1`, the “hERG current change (%, negative = inhibition) at 10uM” value is given as 6.7%.
As to `CCC1CN(S(=O)(=O)c2cc(-c3cc(C)no3)ccc2OC)c2cc(C)ccc2O1` (centres unmarked), the “hERG current change (%, negative = inhibition) at 10uM” value was -11.5%.
Regarding `CCOc1ccccc1CN1C(=O)C2(OCCO2)c2ccccc21`, the “hERG current change (%, negative = inhibition) at 10uM” value is on record as -2.35%.
For `CC(=O)c1cn(CC(=O)Nc2ccccc2C)c2ccccc12`, the “hERG current change (%, negative = inhibition) at 10uM” value was 20.3%.
As for `O=C(CSc1nnc(CNc2ccccc2)o1)N1CCc2ccccc21`, the “hERG current change (%, negative = inhibition) at 10uM” value amounted to 0.222%.
The value for `Cc1ccc(S(=O)(=O)CCC(=O)Nc2cccc(C)c2)cc1` was 3.33%.
Consider `Cc1ccc(NC2CCCN(C(=O)CN3C(=O)CSC3=O)C2)cc1C` (centres unmarked), for which the “hERG current change (%, negative = inhibition) at 10uM” value is -7.29%.
As for `Clc1ccccc1OCCCCN1CCNCC1.O=C(O)C(=O)O`, the “hERG current change (%, negative = inhibition) at 10uM” value was found to be 12.7%.
Turning to `COc1cc(S(=O)(=O)N2CC(=O)Nc3ccccc32)ccc1NC(C)=O`, the “hERG current change (%, negative = inhibition) at 10uM” value came to 10.5%.
The value for `Cc1ccn(-c2ccc(NC(=O)c3cccs3)cc2)n1` was 22.9%; that for `Cc1cccc(C)c1NC(=O)COC(=O)c1ccccc1Nc1ccccc1` was 20.5%; that for `NC(=O)CC(NC(=O)c1cccc(Br)c1)c1ccc(N2CCC(Br)CC2)c([N+](=O)[O-])c1` (centres unmarked) was -1.53%.
As for `Cc1ccc(/C=N/n2cnnc2)s1`, the “hERG current change (%, negative = inhibition) at 10uM” value is on record as -35.8%.
For the molecule `COc1ccc(CNC(=O)Nc2cc(C)cc(C)c2)cc1`, the “hERG current change (%, negative = inhibition) at 10uM” value is on record as 13.3%.
